In PubChem BioAssay AID686971 (National Center for Advancing Translational Sciences (NCATS), 2013):
Among all 360,000 compounds or so, about 7,500 (2.1%) were called active. Inconclusive results, whose numbers are uncertain, are shown with a selection of clear calls. Calls come from the whole dose curve; as a rule, active = well fitted cell-killing curve with a large enough effect; inconclusive = small, poorly fitted or top-dose-only effect, or effect the other way, or another doubt; inactive = no such curve, though single readings can be large or run the other way. Potencies of inconclusive entries are left out as doubtful fits.

Assay: qHTS for induction of synthetic lethality in tumor cells producing 2HG: qHTS for the HT-1080-IDH1KD cell line;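 for activity, negative = toxicity: 0% = DMSO wells and -100% = cell-free medium wells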
Details: HT-1080 IDH1 knockdown viability, ATP luminescence, 48 h; activity, negative = toxicity: at 46.1 µM (top of the series) unless noted
How it was run: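 Luminescent ATP read-out (CellTiter-Glo, 10 min at room temperature) after 48 h compound exposure at 37 °C gave viability of IDH1-knockdown HT-1080 cells. Activity was normalised to DMSO and cell-free wells, then fitted as concentration-response curves.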
Potency is the fitted concentration of half-maximal effect; tags give direction and shape of the fitted curve.

SMILES	activity, negative = toxicity	Potency
COc1ccccc1N1CCN(C(CNS(=O)(=O)c2cc(F)ccc2F)c2cccnc2)CC1 (stereo not given)	inactive: 1.63%	
Cc1cc(-c2n[nH]c(=S)n2/N=C/C(Cl)=C/c2ccccc2)n[nH]1		inconclusive [cytotoxic, single point]
COc1ccc(/C=N/n2c(SC)nnc2-c2ccccc2)cc1C		inconclusive [cytotoxic, single point]
CCCc1ccc(-c2cc(C(=O)NCCc3ccc(S(N)(=O)=O)cc3)c3ccccc3n2)cc1		inconclusive [cytotoxic, single point]
Cc1cccnc1C(NC(=O)C1CCN(Cc2ccc(Oc3ccccc3)cc2)CC1)c1ccccc1 (stereo not given)		active: 18.4 µM
O=C(NCc1cccnc1)[C@@H]1CC=C[C@@H]2CCN(Cc3ccc(Cl)c(Cl)c3)C(=O)[C@@H]21	inactive: -0.904%	
CCn1c2ccc(C)cc2c2nnc(SCCN3CCCCC3)nc21		active: 23.1 µM
CC(=O)Nc1cc(C(F)(F)F)ccc1OCCOc1ccccc1	inactive: -1.21%	
Cc1ccc(Cn2ccsc2=NC(=O)CCl)cc1		active: 11.6 µM
c1ccc2c(c1)oc1c(-c3ccc4nccn4c3)cccc12		inconclusive [cytotoxic, single point]
CCCCCCOc1ccc(NC(=O)CC2C(=O)N(CC)C(=S)N2Cc2ccco2)cc1 (stereo not given)		inconclusive [cytotoxic, single point]
Cc1ccc(-c2noc(CCC(=O)Nc3ccccc3N3CCN(C)CC3)n2)cc1		inconclusive [cytotoxic, single point]
COc1cccc(C(=O)C2CN(c3ccccc3)CC2c2ccc(Cl)cc2)c1 (stereo not given)		inconclusive [cytotoxic, single point]
Cc1ccc(-c2noc(C3CCCN(C(=O)c4ccc(F)cc4F)C3)n2)cc1 (stereo not given)		inconclusive [cytotoxic, partial curve]
CCN(CC)S(=O)(=O)c1ccc(S(=O)(=O)Nc2c(C)nn(C)c2C)cc1		inconclusive [cytotoxic, single point]
CC1CCCCC12NC(=O)N(CC(=O)Nc1cccnc1)C2=O (stereo not given)	inactive: 8.6%	
COc1ccc(/C=C/C(=O)N(C)c2ccccc2C(=O)O)cc1	inactive: 14%	
COC(=O)[C@@]12C[C@@H](CC(=O)NCCc3ccccc3OC)C(=O)N(CCc3ccc(OC)c(OC)c3)C1=CCC(C)(C)C2		inconclusive [cytotoxic, single point]
COc1ccc2c(c1)OC[C@H]1[C@H]2N2C(=O)c3ccc(F)cc3NC(=O)[C@@]2(C)[C@H]1c1ccccc1		inconclusive [cytotoxic, single point]
Nc1nc2ccccc2n1/N=C/c1ccc([N+](=O)[O-])s1	inconclusive: -11.6% [cytotoxic]	
COc1cc2nc(NC3CCN(Cc4ccccc4)CC3)nc(N3CCCN(C)CC3)c2cc1OC		active: 2.82 µM
O=C(Nc1ccc(N2CCN(C(=O)c3ccccc3)CC2)cc1)c1cc2ccccc2o1		inconclusive [cytotoxic, full curve, poor fit]
CCC(=O)Nc1nnc(SCC(=O)NCCc2ccc(OC)c(OC)c2)s1	inactive: 3.33%	
CN1CCCC1CCNc1ccc2c(=O)c3ccccc3oc2c1 (stereo not given)	inactive: -2.7%	

SMILES	activity, negative = toxicity	Potency
Cc1ccc(C(=O)NCc2cccc(C(F)(F)F)c2)cc1S(=O)(=O)N1CCCCC1	inconclusive: -4.84% [cytotoxic]	
COc1ccccc1-c1csc(C(C)(O)c2cccc(F)c2)n1 (stereo not given)		inconclusive [cytotoxic, single point]
CCCOc1ccc(F)cc1-c1cc(C(=O)Nc2ccc(OC)c(OC)c2)[nH]n1		inconclusive [cytotoxic, partial curve]
CC1CCCCN1C(=O)c1cccc(NC(=O)c2ccccc2)c1 (stereo not given)	inactive: 11%	
COc1cc(CC(=O)OCC(=O)N2CCCCC2C)cc(OC)c1OC (stereo not given)	inactive: 0%	
Cc1cc2ccccc2n1CCNC(=O)Cc1cccc2ccccc12		inconclusive [cytotoxic, single point]
O=c1cc[nH]c2c(C(F)(F)F)cccc12	inactive: -5.54%	
COCCCNC(=O)c1ccc(Cn2c(=O)c3ccccc3n(Cc3ccc(C)cc3)c2=O)cc1		inconclusive [cytotoxic, partial curve]
COc1ccc(C(c2nnnn2C2CCCCC2)N2CCN(C/C=C/c3ccccc3)CC2)cc1 (stereo not given)		inconclusive [cytotoxic, single point]
CCOc1ccc(NC(=O)c2cc(Cl)nc3ccccc23)cc1		inconclusive [cytotoxic, full curve]
COc1cccc(CNc2nc3cc(-c4csc5ccccc45)sc3c(=O)n2C)c1		inconclusive [cytotoxic, partial curve]
S=C(NCCC(c1ccccc1)c1ccccc1)Nc1cccc(Cl)c1		inconclusive [cytotoxic, single point]
O=C(Cc1cccs1)NCCc1ccc(Cl)cc1	inactive: -2.25%	
N#CCSc1nnc(-c2sc3ccccc3c2Cl)o1		inconclusive [cytotoxic, single point]
Cc1cccc(CCN(C(=O)Cc2cccs2)C(C(=O)NC2CCCCC2)c2cccnc2)c1 (stereo not given)	inactive: 1.52%	
COc1ccc(-c2cc(=O)oc3c(O)c(O)ccc23)cc1	inconclusive: -31.2% [cytotoxic]	
O=C(Cc1ccccc1)NCc1ccc(-n2cccc2)cc1		active: 5.8 µM
CC(OC(=O)c1cc2sccc2n1C)C(=O)NCCc1ccccc1 (stereo not given)		inconclusive [cytotoxic, single point]
C=C1C(=O)[C@@]23[C@H](O)C[C@@H]4C(C)(C)CC[C@H](O)[C@]4(C)[C@@H]2C[C@H](O)[C@@H]1[C@H]3O		inconclusive [cytotoxic, single point]
O=c1ccc2cc(O)c(O)cc2o1		inconclusive [cytotoxic, single point]
O=C(Nc1ccc(Cl)cc1)c1cccnc1N1CCCCC1		inconclusive [cytotoxic, single point]
O=C(Nc1ccccc1)Nc1nc(-c2ccc(Cl)cc2)cs1		inconclusive [rising, single point]
O=c1oc(-c2ccccc2)cc(Cl)c1Cl		active: 9.2 µM
O=[N+]([O-])c1ccc(N/N=C/c2cn(-c3ccccc3)nc2-c2ccccc2)cc1		inconclusive [cytotoxic, single point]

SMILES	activity, negative = toxicity	Potency
O=[N+]([O-])c1ccc(N/N=C/c2cccc(O)c2O)c(S(=O)(=O)N2CCOCC2)c1	inactive: -8.43%	
CCCCNc1ncnc2c1cnn2-c1ccc(Cl)cc1		active: 9.2 µM
O=c1c2cc(Cl)ccc2nc(-c2ccc([N+](=O)[O-])cc2)n1O		inconclusive [cytotoxic, single point]
Cc1cscc1-c1ccc(C(=O)Nc2c(C)cccc2C)o1		inconclusive [cytotoxic, single point]
CCC(C)(C)c1ccc(OCCCC[n+]2ccc(C)cc2)c(C(C)(C)CC)c1		inconclusive [cytotoxic, single point]
CCc1nc2ccc(C(=O)N(C)CCCN(C)C)cn2c1N(C)CCCc1ccccc1		inconclusive [cytotoxic, single point]
CCCc1c(-c2ccc(Cl)cc2)ncn1CCc1ccccc1OC		inconclusive [cytotoxic, single point]
CCOC(=O)c1c(NC(=O)CSc2ncnc3[nH]ncc23)sc2c1CCC(C)C2 (stereo not given)		inconclusive [cytotoxic, single point]
O=C(CCl)N(Cc1cc(=O)[nH]c2ccccc12)c1ccccc1		inconclusive [cytotoxic, single point]
COc1ccc(OCC(=O)N2CCCC(Nc3ccc(C)c(C)c3)C2)cc1 (stereo not given)	inactive: 14%	
CC(C)(C)c1ccc(C(=O)N2CCC2(C)C(=O)NCc2ccc3c(c2)OCO3)cc1 (stereo not given)		inconclusive [cytotoxic, single point]
Cc1ccc(-c2[nH]ncc2/C=N/n2c(COc3ccccc3C)nc3ccccc3c2=O)cc1		inconclusive [cytotoxic, single point]
COc1ccc2c(C(=O)CCl)c[nH]c2c1		inconclusive [cytotoxic, single point]
Cc1ccccc1Cn1c(C)c(C(=O)NCc2cccc(Cl)c2)sc1=O		inconclusive [cytotoxic, single point]
O=c1n(Cc2ccccc2)c(O)c2n1Cc1ccccc1N=C2c1ccc(C(F)(F)F)cc1	inactive: -12.2%	
COc1ccccc1N1CCN(CC(=O)Nc2ccc(Cl)c(C(F)(F)F)c2)CC1		inconclusive [cytotoxic, single point]
O=C(CN1C(=O)NC2(CCCCCC2)C1=O)N1CCN(c2ccccc2)CC1	inactive: 5.96%	
Cc1ccc(C(=O)N/C(=C\c2ccc(-c3cccc([N+](=O)[O-])c3)o2)C(=O)NCCCN(C)C)cc1		active: 14.6 µM
COc1ccccc1C(=O)Nc1nnc(C)s1		inconclusive [rising, full curve, poor fit]
O=C(NC(c1ccccc1)c1ccsc1)C1CCN(Cc2ccc(Cl)c(Cl)c2)CC1 (stereo not given)	inactive: 4.27%	
CSc1ccccc1NC(=O)CN(C)C(C)C(=O)Nc1ccc(C#N)cc1 (stereo not given)		inconclusive [cytotoxic, partial curve]
O=C(CCNc1ccc(Cc2ccncc2)cc1)c1ccc([N+](=O)[O-])cc1		inconclusive [cytotoxic, single point]
